# Test results taken from PubChem BioAssay AID686979 (National Center for Advancing Translational Sciences (NCATS), 2013).
# The whole screen tested about 420,000 compounds, of which about 50,000 (12%) were called active. This list was built around the results that the source calls inconclusive (neither active nor inactive); the mix of calls is not that of the screen. Calls come from the whole dose curve; as a rule, active = well fitted inhibition curve with a large enough effect; inconclusive = small, poorly fitted or top-dose-only effect; inactive = flat fitted curve, though single readings scatter. Potencies of inconclusive entries are left out as doubtful fits.
# Assay: qHTS for Inhibitors of human tyrosyl-DNA phosphodiesterase 1 (TDP1): qHTS in cells in presence of CPT; note: nearly all actives have a fitted effect of over 55% in size
# Settings: chicken DT40 Tdp1-/-;hTDP1 cells + 20 nM CPT, ATP luminescence, 48 h; activity change, negative = growth inhibition: at 46.2 µM (top of the series) unless noted
# Method in brief: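 Cell growth measured by CellTiter-Glo luminescence after a minimum 48 h, 37 C compound exposure with 20 nM CPT in Tdp1-knockout DT40 cells stably expressing hTDP1, seeded 400/well; qHTS titration format.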
# % is set by controls: 0 for no effect and ±100 for the full control effect; potency is the fitted concentration of half-maximal effect; tags give direction and shape of the fitted curve.
Compound,Potency,"activity change, negative = growth inhibition"
CCOc1cccc(C2C(C(=O)c3ccc(C)o3)=C(O)C(=O)N2Cc2ccccc2)c1 (centres undefined),"inconclusive [inhibitor, single point]",–
CC(=O)c1cccc(NC(=O)Nc2sc3nc4n(c(=O)c3c2C)CCC(C)CC4)c1 (centres undefined),"inconclusive [inhibitor, partial curve, poor fit]",–
Cc1c(C(=O)NCCc2cccnc2)cnn1-c1nccc(-c2ccccc2F)n1,"inconclusive [inhibitor, single point]",–
CC(Cc1cccs1)NC(=S)Nc1ccc(F)cc1 (centres undefined),"inconclusive [inhibitor, single point]",–
Cc1csc(SCC(=O)Nc2ccc(F)cc2Cl)n1,inactive,–
CCCN1CCC(=O)N([C@H](CSc2ccc(Br)cc2)c2ccccc2)CC1,"inconclusive [inhibitor, single point]",–
O=C(Nc1cc(C(F)(F)F)ccc1Cl)C(Sc1cccc[n+]1[O-])c1ccccc1 (centres undefined),active: 4.61 µM,–
Cc1ccc(S(N)(=O)=O)cc1NC(=O)C(c1ccccc1)c1ccccc1,inactive,–
C=C1C(=O)[C@]23C[C@H]1CCC2[C@@]1(C)C(C[C@@H]3O)[C@](C)(C(=O)O)C[C@H](O)[C@@H]1O (some centres undefined),inactive,–
O=C(CNC(=O)c1ccccc1)OCc1cc(=O)n2nc(C3CCCCC3)sc2n1,"inconclusive [inhibitor, single point]",–
CC1CC(C)(C)CC2(C1)NC(=O)N(CC(=O)N1CCN(S(=O)(=O)c3cccs3)CC1)C2=O (centres undefined),"inconclusive [inhibitor, single point]",–
COc1ccc(N2CCN(C(=O)CSc3nc(-c4ccc(C(C)C)cc4)no3)CC2)cc1,active: 18.4 µM,–
O=[N+]([O-])c1ccc(S(=O)(=O)NN=Cc2ccc(Cl)c(Cl)c2)cc1,"inconclusive [inhibitor, single point]",–
Cc1ccc2sc(N(Cc3cccnc3)C(=O)CCS(=O)(=O)c3ccccc3)nc2c1C,active: 5.8 µM,–
CCCc1ccc(S(=O)(=O)N/N=C\c2ccc3c(c2)OCO3)cc1,"inconclusive [inhibitor, single point]",–
CCCCn1c(N)c(N(CCOC)C(=O)c2cccc(-n3cnnn3)c2)c(=O)[nH]c1=O,inactive,–
Cc1cccc2nc(-c3cccc(NC(=O)Cc4ccccc4)c3)cn12,"inconclusive [inhibitor, single point]",–
CC(C)C1C(=O)N(Cc2cn(CC3CCCCC3)nn2)CCS(=O)(=O)N1Cc1ccc(-c2ccc(F)cc2)cc1 (centres undefined),inactive,–
O=C(CN1C(=O)NC2(CCCCCC2)C1=O)Nc1ccc(Br)cc1Br,"inconclusive [inhibitor, partial curve]",–
CCOC(=O)c1cc2sc(C)cc2n1CC(=O)NCc1ccc(F)cc1,–,inconclusive: -32.4% [inhibitor]
CCc1ccc(Nc2n[n+](-c3ccccc3)c(-c3cc(OC)c(OC)cc3Br)s2)cc1,active: 16.4 µM,–
COc1cc(-c2nnc(Sc3ccc(C(F)(F)F)cc3[N+](=O)[O-])o2)cc(OC)c1OC,active: 20.6 µM,–

Compound,Potency,"activity change, negative = growth inhibition"
O=C(Cc1ccccc1)NNC(=O)C1CC=CCC1 (centres undefined),inactive,–
COc1cccc(NC(=O)N2CCCC2C(=O)NC2CCCCC2)c1 (centres undefined),inactive,–
COc1ccc(-c2cc3cc(OC)c(OC)cc3c(C)n2)cc1,"inconclusive [inhibitor, single point]",–
NS(=O)(=O)c1ccc(Nc2nc(-c3ccc(F)cc3)cs2)cc1,active: 18.4 µM,–
Cc1ccc(C)c(N2CCN(c3ccc(N4C(=O)COCC4=O)cc3[N+](=O)[O-])CC2)c1,inactive,–
O=[N+]([O-])c1ccc([N+](=O)[O-])c(Nc2ccc(N3CCOCC3)cc2)c1,inactive,–
COc1ccc(-c2nc3scc(CCNS(=O)(=O)c4ccc5c(c4)OCCO5)n3n2)cc1OC,"inconclusive [inhibitor, single point]",–
CC(C)CC(NC(N)=O)C(=O)NCCc1ccc(Cl)cc1 (centres undefined),inactive,–
Cc1ccc(-n2ncc3c(NCC4CCCO4)ncnc32)c(C)c1 (centres undefined),"inconclusive [inhibitor, partial curve]",–
COc1ccc(NC(=O)CCC2CCCCC2)cc1S(=O)(=O)N1CCCCC1,"inconclusive [inhibitor, single point]",–
Cc1c(C(=O)N2CCC(C)CC2)sc2ncnc(N(C)c3ccccc3)c12,"inconclusive [inhibitor, single point]",–
CCNc1nc(C#N)nc(N2CCOCC2)n1,"inconclusive [inhibitor, partial curve, poor fit]",–
CN1CCN(c2ccc(CNC(=O)C3Cc4c(-c5cccc(F)c5)ccnc4O3)cc2)CC1 (centres undefined),"inconclusive [inhibitor, single point]",–
CC(C)(C)OC(=O)N1CCN(C(=O)c2[nH]cnc2C(=O)N[C@@H](Cc2ccccc2)C(=O)OCc2ccccc2)CC1,"inconclusive [inhibitor, single point]",–
CCn1c(CN2CCN(c3ccc(Cl)cc3)CC2)nc2ccccc21,"inconclusive [inhibitor, single point]",–
COC(=O)c1cc(-c2cccc(OC)c2)c2c(=O)[nH]c(=O)n(C)c2n1,inactive,–
CCCOc1ccc(CCCN=C(N)N)cc1Cl,active: 2.06 µM,–
COC(=O)[C@]12CCCCC=C1N(Cc1ccccc1)C(=O)[C@H](CC(=O)NCCCCc1ccccc1)C2,active: 23.1 µM,–
Cc1cc(C)cc(OCCSc2nc3ccc(NC(=O)c4cccs4)cc3s2)c1,"inconclusive [inhibitor, single point]",–
O=C(COc1ccc(Cl)cc1Cl)NCc1ccco1,inactive,–
Cc1c(-c2ccccc2)c(=O)oc2ccc(OC(=O)N3CCOCC3)cc12,"inconclusive [inhibitor, single point]",–
CC[C@@]12C(=O)N(c3cccc(F)c3)C(=O)N1[C@H](c1ccc(F)cc1)[C@@H]1C(=O)N(C3CCCCC3)C(=O)[C@@H]12,"inconclusive [inhibitor, single point]",–
